Laboratory results reported in PubChem BioAssay AID504706 (National Center for Advancing Translational Sciences (NCATS), 2011).
In all, about 320,000 compounds went through this assay and about 200 (0.062%) were called active. The inconclusive results got no clear call from the source; some entries with a clear call stand among them for comparison. Calls come from the whole dose curve; as a rule, active = well fitted activation curve with a large enough effect; inconclusive = small, poorly fitted or top-dose-only effect; inactive = no such curve, though single readings can be large or run the other way. No potency is given beside an inconclusive call; the fits are too rough.

Test: qHTS assay for re-activators of p53 using a Luc reporter; note: nearly all actives have a fitted effect of over 45% in size
Conditions: H1299 p53-A138V BP100-luciferase reporter, luminescence, 24 h; series mostly up to 92.2 µM
Method in brief: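 H1299 (p53-null), stable ts p53-A138V + BP100-Luc; 1000 cells/well, Opti-MEM/10% FBS; cpd 4 pt, 1:5; 24 h, 37 deg C, 5% CO2; detection reagent 10 min RT; luminescence.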
Potency is the fitted concentration of half-maximal effect; tags give direction and shape of the fitted curve.

Row | SMILES | Potency
1 | COc1ccccc1NC(=O)c1ccc(NC(=O)CSc2nnnn2C)cc1 | inconclusive [activator, single point]
2 | COCn1c(-c2ccc(OC)cc2)nc2ccccc21 | inconclusive [activator, full curve, poor fit]
3 | CCOc1cccc(-c2c(C(=O)N/N=C(\C)c3ccccn3)nnn2-c2nonc2N)c1 | inconclusive [activator, full curve, poor fit]
4 | COC1=C(C)C(O)=C(C(=O)/C=C/c2ccccc2)C(=O)C1(C)C | inconclusive [activator, single point]
5 | CCOc1ccc(C(=O)Nc2cc(C)ccn2)cc1 | inactive
6 | Cc1occc1C(=O)N/N=C/c1cccnc1 | inactive
7 | CN1CCc2c(sc3nc(SCC(=O)NCc4ccco4)n(-c4ccccc4)c(=O)c23)C1 | inconclusive [activator, partial curve, poor fit]
8 | CC[C@H](C)C(=O)N[C@H]1CCCN1C(=O)/C=C/c1ccccc1 | inconclusive [activator, single point]
9 | Cc1ccccc1OCC(=O)Nc1ccc(Cc2ccncc2)cc1 | inactive
10 | C=CCC1(CC=C)CCCN1C(=O)c1cc(COc2ccc(C)nc2)on1 | inconclusive [activator, full curve, poor fit]
11 | C/C(=N\Nc1nc(-c2ccccc2)cs1)c1cccs1 | inconclusive [activator, partial curve, poor fit]
12 | CC(C)NC(=O)CCc1nnc(Cc2cccc(C(F)(F)F)c2)o1 | inconclusive [activator, partial curve, poor fit]
13 | Cc1cccc(Nc2nc(-c3ccccc3)cs2)n1 | inconclusive [activator, full curve, poor fit]
14 | Cc1ccc(-c2nnn(CC(=O)N3C(C)CCCC3C)n2)cc1 (stereo not drawn) | inconclusive [activator, single point]
15 | COc1ccc(/C=N/NC(=O)c2nc(-c3ccccc3)cc(-c3ccccc3)n2)cc1 | inactive
16 | Cc1cc(NC(=O)CC2CCCC2)ccc1Br | inconclusive [activator, partial curve]
17 | COc1ccccc1OCc1nnc(SCC(=O)Nc2ccc(C)cc2)n1C | inactive
18 | S=C(Nc1ccccc1)c1ccccn1 | inconclusive [activator, partial curve, poor fit]
19 | O=C(Cn1c(=O)cnc2ccccc21)NNC(=O)c1ccccc1Cl | inactive
20 | CCC1C(=O)n2nc(-c3ccccc3)cc2N=C1C (stereo not drawn) | inconclusive [activator, partial curve]
21 | Cc1ccccc1C(C(=O)NCc1ccco1)N(CC1CCCO1)C(=O)Cn1nnc2ccccc21 (stereo not drawn) | inconclusive [activator, single point]
22 | CCOc1cc(C(=O)N2CCCN(C)CC2)cc(OCC)c1OCC | inconclusive [activator, single point]

Row | SMILES | Potency
23 | Cc1ccc(C(=O)Oc2ccccc2N2C(=O)C3CCCCC3C2=O)cc1 (stereo not drawn) | inactive
24 | C#CCOCCOCCOCCNc1nc(N2CCN(C(=O)CCCCCCCCCCNC(=O)Cn3cc(CCCCCN)nn3)CC2)nc(N2CCN(C(=O)CCCCCCCCCCNC(=O)Cn3cc(CCCCCN)nn3)CC2)n1 | inactive
25 | CCCCc1cc(=O)oc2cc(C)cc(OCC(=O)Nc3ccccn3)c12 | inconclusive [activator, full curve]
26 | O=C(OCC(=O)N1CCc2ccccc21)c1ccccc1[N+](=O)[O-] | inconclusive [activator, partial curve, poor fit]
27 | O=C(CSc1nnc(-c2ccc3c(c2)OCO3)o1)Nc1c(F)cccc1F | inconclusive [activator, partial curve, poor fit]
28 | Cc1noc(C)c1COc1ccc(C(=O)NCCOc2ccccc2)cc1 | inconclusive [activator, partial curve, poor fit]
29 | COc1ccc(OC)c(/C=N/NC(=O)c2[nH]ncc2Br)c1 | inactive
30 | CC(C)n1c(=NC(=O)c2ccco2)c(C#N)cc2c(=O)n3ccccc3cc21 | inconclusive [activator, partial curve, poor fit]
31 | Cc1nc2ccc(NC(=O)c3ccc4ccccc4n3)cc2s1 | inactive
32 | COc1cccc(/C=C/C(=O)NNC(=O)c2ccccc2)c1OC | inconclusive [activator, full curve, poor fit]
33 | CCOC(=O)CN(C(=O)CN1CCC(n2nnc3cc(C)ccc32)CC1)c1ccccc1 | inactive
34 | CCC(=O)N1c2ccc(S(=O)(=O)NCCc3ccccc3)cc2CC1C (stereo not drawn) | inactive
35 | Cc1ccc(NC(=S)NC(=O)C2CCCC2)c(Br)c1 | inconclusive [activator, full curve, poor fit]
36 | N#Cc1nc(-c2ccco2)oc1NCc1ccco1 | inactive
37 | O=C(NNc1nc2cc3c(cc2s1)OCO3)c1ccc(F)cc1 | inconclusive [activator, single point]
38 | CCOc1ccc(OCC(=O)c2c(O)c3ccccc3oc2=O)cc1 | inconclusive [activator, partial curve, poor fit]
39 | O=C(CSC1=NCCS1)Nc1ccccc1F | inconclusive [activator, partial curve, poor fit]
40 | N/C(=N\OC(=O)CCC1CCCC1)c1ccccn1 | inconclusive [activator, full curve, poor fit]
41 | CN(CC1COc2ccccc2O1)C(=O)CSc1ncccn1 (stereo not drawn) | inconclusive [activator, partial curve, poor fit]
42 | CC1=NN(c2cccc(C(=O)O)c2)C(=O)/C1=C\C=C\c1ccco1 | inconclusive [activator, partial curve, poor fit]
43 | CCCCC(CC)Cn1c2nc3ccccc3nc2c2c(=N)oc(C)nc21 (stereo not drawn) | inconclusive [activator, single point]
